# Test results from the supplement of paper PMC12217912.
# Some of the results follow. The full chains were built here from the parent and the listed change. Inactive controls read about 0.05.
# B1: TEV protease; numbered along this chain (parent)
# chain: MGESLFKGPRDYNPISSSICHLTNESDGHTTSLYGIGFGPFIITNKHLFRRNNGTLVVQSLHGVFKVKDTTTLQQHLVDGRDMIIIRMPKDFPPFPQKLKFREPQREERICLVTTNFQTKSMSSMVSDTSCTFPSGDGIFWKHWIQTKDGQCGSPLVSTRDGFIVGIHSASNFTNTNNYFTSVPKNFMELLTNQEAQQWVSGWRLNADSVLWGGHKVFMVKPEEPFQPVKEATQL
# Variants of: B1
# Test: raw area under fraction-flipped curve 0-4 h after induction (AUC4h, not background-subtracted), DNA-recorder readout of cleavage of the substrate (dimensionless); higher = more cleavage of the substrate by the protease variant
# Conditions: temperature: 34 °C; time window: 0-4 h after rhamnose induction
# Method: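 In vivo DNA recorder in E. coli TOP10(DE3) ΔrhaA at 34 °C. Each TEVp single-site mutant (parent TEVp 0) is paired with a single-site variant of the 7-mer TEVs (canonical ENLYFQ|S). The substrate sits between flexible linkers in a Bxb1-sfGFP-TEVs-SsrA fusion, so cleavage stabilises Bxb1 and speeds flipping of a recombination array, read by NGS. The value is the raw area under the fraction-flipped curve over 0-4 h after rhamnose induction (AUC4h), with ≥20 reads per time point. It is not background-subtracted; inactive controls average about 0.047.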
# 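Further: Bxb1 expression induced with 0.2% (w/v) L-rhamnose at OD600 near 0.5, cultures sampled hourly, flipped fraction per protease–substrate barcode pair counted by paired-end Illumina sequencing.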
Variant,area with substrate CNLYFQS,area with substrate KNLYFQS,area with substrate PNLYFQS,area with substrate QNLYFQS,area with substrate RNLYFQS,area with substrate TNLYFQS,area with substrate VNLYFQS,area with substrate GNLYFQS,area with substrate INLYFQS,area with substrate NNLYFQS,area with substrate FNLYFQS,area with substrate HNLYFQS,area with substrate MNLYFQS,area with substrate SNLYFQS,area with substrate YNLYFQS,area with substrate LNLYFQS,area with substrate WNLYFQS
MGESLFKGPRDYNPISSSICHLTNESDGHTTSLYGIGFGPFIITNKHLFRRNNGTLVVPSLHGVFKVKDTTTLQQHLVDGRDMIIIRMPKDFPPFPQKLKFREPQREERICLVTTNFQTKSMSSMVSDTSCTFPSGDGIFWKHWIQTKDGQCGSPLVSTRDGFIVGIHSASNFTNTNNYFTSVPKNFMELLTNQEAQQWVSGWRLNADSVLWGGHKVFMVKPEEPFQPVKEATQL [Q59P],0.0348,0.0237,0.0235,0.0455,0.0356,0.0454,0.0359,,,,,,,,,,
MGESLFKGPRDYNPISSSICHLTNESDGHTTSLYGIGFGPFIITNKHLFRRNNGTLVVDSLHGVFKVKDTTTLQQHLVDGRDMIIIRMPKDFPPFPQKLKFREPQREERICLVTTNFQTKSMSSMVSDTSCTFPSGDGIFWKHWIQTKDGQCGSPLVSTRDGFIVGIHSASNFTNTNNYFTSVPKNFMELLTNQEAQQWVSGWRLNADSVLWGGHKVFMVKPEEPFQPVKEATQL [Q59D],0.0431,,0.0669,,,,,0.0602,0.0575,0.061,,,,,,,
MGESLFKGPRDYNPISSSICHLTNESDGHTTSLYGIGFGPFIITNKHLFRRNNGDLVVQSLHGVFKVKDTTTLQQHLVDGRDMIIIRMPKDFPPFPQKLKFREPQREERICLVTTNFQTKSMSSMVSDTSCTFPSGDGIFWKHWIQTKDGQCGSPLVSTRDGFIVGIHSASNFTNTNNYFTSVPKNFMELLTNQEAQQWVSGWRLNADSVLWGGHKVFMVKPEEPFQPVKEATQL [T55D],0.036,,,,,0.0804,,0.049,,,0.0513,0.0544,0.0595,0.0563,0.057,,
MGESLFKGPRDYNPISSSICHLTNESDGHTTSLYGIGFGPFIITNKHLFRRNNGALVVQSLHGVFKVKDTTTLQQHLVDGRDMIIIRMPKDFPPFPQKLKFREPQREERICLVTTNFQTKSMSSMVSDTSCTFPSGDGIFWKHWIQTKDGQCGSPLVSTRDGFIVGIHSASNFTNTNNYFTSVPKNFMELLTNQEAQQWVSGWRLNADSVLWGGHKVFMVKPEEPFQPVKEATQL [T55A],0.0557,,0.0739,,,0.0469,0.0263,,0.0601,,0.0682,,0.0746,0.0517,0.0584,0.0692,0.0495
MGESLFKGPRDYNPISSSICHLTNESDGHTTSLYGIGFGPFIITNKHLFRRNNGLLVVQSLHGVFKVKDTTTLQQHLVDGRDMIIIRMPKDFPPFPQKLKFREPQREERICLVTTNFQTKSMSSMVSDTSCTFPSGDGIFWKHWIQTKDGQCGSPLVSTRDGFIVGIHSASNFTNTNNYFTSVPKNFMELLTNQEAQQWVSGWRLNADSVLWGGHKVFMVKPEEPFQPVKEATQL [T55L],0.0567,0.0799,0.071,,,0.0614,,0.0532,0.0698,0.0714,,0.055,0.0588,,0.0573,,
MGESLFKGPRDYNPISSSICHLTNESDGHTTSLYGIGFGPFIITNKHLFRRNNGNLVVQSLHGVFKVKDTTTLQQHLVDGRDMIIIRMPKDFPPFPQKLKFREPQREERICLVTTNFQTKSMSSMVSDTSCTFPSGDGIFWKHWIQTKDGQCGSPLVSTRDGFIVGIHSASNFTNTNNYFTSVPKNFMELLTNQEAQQWVSGWRLNADSVLWGGHKVFMVKPEEPFQPVKEATQL [T55N],0.0721,0.0679,,,,0.0919,0.0713,0.0715,0.044,,0.0548,0.0521,0.083,0.0615,0.0588,0.0496,0.0542
MGESLFKGPRDYNPISSSICHLTNESDGHTTSLYGIGFGPFIITNKHLFRRNNGTLVVQSLHSVFKVKDTTTLQQHLVDGRDMIIIRMPKDFPPFPQKLKFREPQREERICLVTTNFQTKSMSSMVSDTSCTFPSGDGIFWKHWIQTKDGQCGSPLVSTRDGFIVGIHSASNFTNTNNYFTSVPKNFMELLTNQEAQQWVSGWRLNADSVLWGGHKVFMVKPEEPFQPVKEATQL [G63S],0.0484,,0.0702,,,0.0564,,0.0506,,,,0.0581,0.0689,0.0666,0.0547,0.0647,0.0566
MGESLFKGPRDYNPISSSICHLTNESDGHTTSLYGIGFGPFIITNKHLFRRNNGTLVVQSLLGVFKVKDTTTLQQHLVDGRDMIIIRMPKDFPPFPQKLKFREPQREERICLVTTNFQTKSMSSMVSDTSCTFPSGDGIFWKHWIQTKDGQCGSPLVSTRDGFIVGIHSASNFTNTNNYFTSVPKNFMELLTNQEAQQWVSGWRLNADSVLWGGHKVFMVKPEEPFQPVKEATQL [H62L],0.0417,0.0726,,,,0.0605,,,,0.0438,0.0629,,0.0654,,0.0569,0.0566,
MGESLFKGPRDYNPISSSICHLTNESDGHTTSLYGIGFGPFIITNKHLFRRNNGTLVVQSLHGVFKFKDTTTLQQHLVDGRDMIIIRMPKDFPPFPQKLKFREPQREERICLVTTNFQTKSMSSMVSDTSCTFPSGDGIFWKHWIQTKDGQCGSPLVSTRDGFIVGIHSASNFTNTNNYFTSVPKNFMELLTNQEAQQWVSGWRLNADSVLWGGHKVFMVKPEEPFQPVKEATQL [V67F],0.066,0.0655,,,,,,,,0.047,0.0715,0.0627,0.0738,,,0.0504,0.0376
MGESLFKGPRDYNPISSSICHLTNESDGHTTSLYGIGFGPFIITNKHLFRRNNGTLVVQSLHGVFKIKDTTTLQQHLVDGRDMIIIRMPKDFPPFPQKLKFREPQREERICLVTTNFQTKSMSSMVSDTSCTFPSGDGIFWKHWIQTKDGQCGSPLVSTRDGFIVGIHSASNFTNTNNYFTSVPKNFMELLTNQEAQQWVSGWRLNADSVLWGGHKVFMVKPEEPFQPVKEATQL [V67I],0.0682,0.0608,0.0521,,,0.039,,,,,,0.0688,0.0719,,,,0.0791
